{
  "source": "patent US20250002581A1",
  "binders": {"B1": {"name": "hufrCH101-IgG4 (antibody)", "heavy": "QVQLQESGPGLVKPSETLSLTCTVSGYSITSGFAWHWIRQPPGKGLEWIGYIHYSGSTNYNPSLKSRVTISVDTSKNQFSLKLSSVTAADTAVYYCARSDFWGQGTLVTVSSASTKGPSVFPLAPCSRSTSESTAALGCLVKDYFPEPVTVSWNSGALTSGVHTFPAVLQSSGLYSLSSVVTVPSSSLGTKTYTCNVDHKPSNTKVDKRV[not shown - human IgG4 Fc with S228P (EU numbers)]", "light": "DVVMTQSPLSLPVTLGQPASISCTSSQSLLDRDGETFMNWFQQRPGQSPRRLIYLVSKLDFGVPDRFSGSGSGTDFTLKISRVEAEDVGVYYCWQGTHFPLTFGGGTKVEIKRTVAAPSVFIFPPSDEQLKSGTASVVCLLNNFYPREAKVQWKVDNALQSGNSQESVTEQDSKDSTYSLSSTLTLSKADYEKHKVYACEVTHQGLSSPVTKSFNRGEC"}},
  "molecular_target": "PD1 (human) (UniProt Q15116)",
  "sequence (Q15116 25-288)": "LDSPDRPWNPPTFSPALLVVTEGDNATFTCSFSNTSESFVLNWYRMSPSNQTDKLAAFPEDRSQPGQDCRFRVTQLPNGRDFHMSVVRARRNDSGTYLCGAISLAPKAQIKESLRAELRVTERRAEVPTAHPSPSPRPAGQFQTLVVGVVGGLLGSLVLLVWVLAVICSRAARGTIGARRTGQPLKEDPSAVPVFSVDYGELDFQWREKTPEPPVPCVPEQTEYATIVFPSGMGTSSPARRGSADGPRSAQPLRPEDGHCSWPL",
  "assay": "flow cytometry on 293T-PD1 cells, antibody 10 ng/ml",
  "data": [
    {"binder": "B1", "values": [
      {"measurement": "293T-PD1 (%)", "value": 1.58, "unit": "%"}
    ]}
  ]
}
